Tested on: Nalm-6 cells
Assay: 48 hour cytotoxicity assay, T cells co-cultured with Nalm-6 cells (NucRed), Incucyte (Example 4, Table 14)
Assay type: cell-based
From the text: The following constructs were transduced into T cells: OT-001356 (nucleic acid sequence SEQ ID NO: 6081 encodes two amino acid sequences, first is SEQ ID NO: 6082 (nucleic acid sequence SEQ ID NO: 6083) second is SEQ ID NO: 6084 (nucleic acid sequence SEQ ID NO: 6085)), OT-001356 (amino acid sequence provided as SEQ ID NO: 6092 and nucleic acid is SEQ ID NO: 6093) OT-001407 (amino acid sequence provided as SEQ ID NO: 6086 and nucleic acid is SEQ ID NO: 6087), OT-001895, OT-002011, OT-002111, OT-0020%, OT-02171. The cells were expanded for 10 days and utilized for cytotoxicity assays. Percentage of CAR positive cells obtained with each of the constructs was as follows: OT-001356: 45.3%; OT-001407, OT-001895: 29.4%, OT-002011: 24.3%, OT-002111: 19.6%, OT-0020%: 6.08%, OT-002171: 13.3%. For cytotoxicity assays, T cells were thawed and co-cultured with Nalm-6 cells (stably expressing NucRed) at different T cells to Nalm-6 cell culture ratios. Target cell viability was determined by measuring cellular fluorescence over time using an Incucyte assay and the results are shown in Table 14.

B1: OT-0020%: construct transduced into T cells for the study of the effect of mbIL12 on CAR activity (protein)
chain: IWELKKDVYVVELDWYPDAPGEMVVLTCDTPEEDGITWTLDQSSEVLGSGKTLTIQVKEFGDAGQYTCHKGGEVLSHSLLLLHKKEDGIWSTDILKDQKEPKNKTFLRCEAKNYSGRFTCWWLTTISTDLTFSVKSSRGSSDPQGVTCGAATLSAERVRGDNKEYEYSVECQEDSACPAAEESLPIEVMVDAVHKLKYENYTSSFFIRDIIKPDPPKNLQLKPLKNSRQVEVSWEYPDTWSTPHSYFSLTFCVQVQGKSKREKKDRVFTDKTSATVICRKNASISVRAQDRYYSSSWSEWASVPCSGGGGSGGGGSGGGGSRNLPVATPDPGMFPCLHHSQNLLRAVSNMLQKARQTLEFYPCTSEEIDHEDITKDKTSTVEACLPLELTKNESCLNSRETSFITNGSCLASRKTSFMMALCLSSIYEDLKMYQVEFKTMNAKLLMDPKRQIFLDQNMLAVIDELMQALNFNSETVPQKSSLEEPDFYKTKIKLCILLHAFRIRAVTIDRVMSYLNASGSGSGSGS[human IgG1 Fc left out here]KQEHFPDNLLPSWAITLISVNGIFVICCLTYCFAPRCRERRGS
Average Total Nalm6-NucRed Area after 48 hour at E:T ratio of 3:1 (E:T ratio 3:1, 48 hour): 109,904
Average Total Nalm6-NucRed Area after 48 hour at E:T ratio of 10:1 (E:T ratio 10:1, 48 hour): 68,898

— US12630599B2, “CA2 compositions and methods for tunable regulation” (Obsidian Therapeutics, Inc., priority 2019, dated 2026)
